Drawing on the RNAGym collection of RNA variant scans (doi:10.1093/nar/gkz1192), this text covers self-cleavage for 83 variants.

The source gives no read counts; variants with many changes may rest on few reads.

To fix the notation:
B1: CPEB3 Ribozyme (parent)
chain: UAACAGGGGGCCACAGCAGAAGCGUUCACGUCGCAGCCCCUGUCAGAUUCUGGUGAAUCUGCGAAUUCUGCUGUAUAUCUC

The variants in the data set derive from B1. Briefly: self-cleavage, relative activity (ratio to wild type); higher = more cleavage; in vitro, sequencing. The gist of the method:
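Relative activity compares each variant's cleaved/total read fraction with that of the unmutated ribozyme. To get these fractions, barcoded CPEB3 ribozyme libraries from rounds of error-prone PCR were transcribed with T7 RNA polymerase for 5 hours at 37°C and then given 15 min of DNase I treatment before EDTA was added. The RNAs were reverse transcribed with template switching and sequenced on Illumina, and DNA sequencing linked barcodes to variants. A minimum of 5 reads applied, and three batches were averaged.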
Regarding A5C A28G A64G U69A, the self-cleavage is 0.13.

For the variant C4G A18G U31C U51G U54C U72A, the self-cleavage amounted to 0.25.

For the variant A3U U26C U60C U66A, the self-cleavage turned out to be 0.48.

As to A5G A20G A64G U66C A75U, the self-cleavage worked out at 0.08.

A5C U69A U74C: the self-cleavage was 0.7.

As to A3U U41A U43A C50G A57G U67C, the self-cleavage is 0.06.

A5G A13G A35G U48C: the self-cleavage was 0.09.

Regarding C4G C12U U54A U72A C81U, the self-cleavage came to 1.32.

On to C4U U26C A45U U60C A64U, for which the self-cleavage was determined as 0.18.

For A5C A18U A20C A65G, the self-cleavage amounted to 0.37.

For the variant A3U G24A U43C G63A U67A U72C U76A, the self-cleavage came to 0.17.

Consider C4A A35U G55A A56U A57U U58C U60C, for which the self-cleavage was determined as 0.12.

For A3U U43C C71A, the self-cleavage was found to be 0.1.

Consider C4A A5G A45U, for which the self-cleavage was determined as 0.44.

In the case of A5G A15G C29U A64U U72A, the self-cleavage amounted to 0.12.

As to C4A A35U C40A U43A A57G, the self-cleavage stood at 0.22.

Regarding A3U G33A U41C A45G, the self-cleavage was 0.14.

Take A5G A15U A45U U48C U67C U76C: the self-cleavage amounted to 0.08.

With C4A C38A U66C, the self-cleavage was 0.16.

For the variant A5C A20G A45G A77G, the self-cleavage amounted to 0.72.

Consider C4A A45G U48C U51C G61A U69A, for which the self-cleavage stood at 0.16.

C4G C29U C38U U66C U67A: the self-cleavage is 0.48.

A5G A15G U25A U41C C62U A64G U76A: the self-cleavage worked out at 0.04.

As for A5G A13G A21G A45U G73A, the self-cleavage was found to be 0.12.

Regarding C4U A28G A35G U43A, the self-cleavage stood at 1.11.

A5G A20G U31A C40A: the self-cleavage came to 0.08.

As for A5G A13U G30A U43C, the self-cleavage was 0.12.

A5G A18U U66C: the self-cleavage stood at 0.28.

For the variant A5G A18G A65G U67C, the self-cleavage was determined as 0.16.

For the variant A5G A18U G36A U54C, the self-cleavage amounted to 0.18.

On to A3U G7U A18C G19C U31C U43C U48C, for which the self-cleavage amounted to 0.09.

Consider A5G A20G U48C, for which the self-cleavage stood at 0.79.

Take A3U C37U C40U U51G C62A U72G: the self-cleavage was found to be 0.16.

With A5G A18G A21G U60G U80G, the self-cleavage was 0.22.

In the case of A5G A13G A15U A56U A57G U78A, the self-cleavage came to 0.12.

Regarding C4U A35G C37A U66C, the self-cleavage was determined as 0.33.

Regarding A5C U25A U51A A57G A75C U76C, the self-cleavage was 0.11.

For the variant A3U G7A A15U U41A U51A U80A, the self-cleavage was 0.32.

Consider A5C U43A A45G A64U U72C, for which the self-cleavage was 0.21.

On to A5G A15G A21G A28G U76G, for which the self-cleavage came to 0.43.

A3U C40U A45G U60C U78C: the self-cleavage is 0.95.

A5G A18U A45C C62A A64G A75G: the self-cleavage is 0.13.

As to C4U A13U A28G G36A U43C C62U, the self-cleavage stood at 0.34.

Turning to A3U G33A C39A U41C, the self-cleavage was determined as 0.08.

Regarding A5G A15G U80A, the self-cleavage was determined as 0.45.

Turning to C4U A18G A45G U48A U72C, the self-cleavage is 0.14.

In the case of A5G A13G U31C, the self-cleavage stood at 0.56.

In the case of C4U A45U U58A, the self-cleavage stood at 0.21.

C4G A45G U80C: the self-cleavage is 1.16.

For A5G A13C A65U, the self-cleavage was found to be 0.21.

Regarding A5G A18G U58C U69C, the self-cleavage amounted to 0.32.

Take A5C C34U A35G A56G U78C: the self-cleavage amounted to 0.27.

Regarding A3U U49C U51C U54C G63U C68A, the self-cleavage was determined as 0.18.

Consider A5G A15G A77G, for which the self-cleavage is 0.54.

On to A5G A13C A45G A75G U78A, for which the self-cleavage came to 0.46.

For the variant A5G A13G C71U, the self-cleavage is 0.29.

On to A5G A15G U31C U41C U51A G55U, for which the self-cleavage was 0.1.

On to A3U U48C U67A U78C, for which the self-cleavage was 0.28.

For A5G A21G U51C U66A, the self-cleavage was determined as 0.27.

For the variant A5G A15G A20G A28U U43C U51A, the self-cleavage is 0.05.

Regarding A5C G6C A45G U80C, the self-cleavage was determined as 0.17.

On to C4U A5G U26C A57G, for which the self-cleavage came out at 0.29.

With A5G A18U U78C U80C, the self-cleavage worked out at 0.21.

Take A3U U51C U76G U78A: the self-cleavage was found to be 1.16.

Regarding A5G A18G C27U U74C, the self-cleavage is 0.11.

Consider A5G A13U U41A U49A U72C U80C, for which the self-cleavage is 0.15.

Turning to A5C A20G G33C C40A A65G U69C, the self-cleavage stood at 0.06.

In the case of C4G A28C U76A, the self-cleavage came out at 0.88.

For the variant A5G A15G U26C A56U U74A, the self-cleavage worked out at 0.36.

As to A5C A20U A35G, the self-cleavage was 0.88.

Take A5G A21G U25C A28G A35U U49C: the self-cleavage worked out at 0.04.

Regarding A3U C29G A35U C40G U54C A64U U72A, the self-cleavage is 0.11.

Consider A5C U49C U67C, for which the self-cleavage was 0.08.

On to A5C G6A A64G U66C U72C A75G, for which the self-cleavage turned out to be 0.05.

On to A5C C50U U58C U69C C81G, for which the self-cleavage is 0.12.

As to A3U G7A A28G U48C A64G, the self-cleavage is 0.1.

Consider C4A A13U U54C U69C, for which the self-cleavage amounted to 0.92.

As to A5C A21G A47G U49C, the self-cleavage is 0.6.

As for A5G A20G U69A A75G U78A, the self-cleavage was 0.15.

For C4U A5U A28G U54G A56G A64U U74C, the self-cleavage amounted to 0.18.

Consider C4A A15U U60C, for which the self-cleavage came out at 1.02.

In the case of C4A A13G U26C U60C A64G U72C, the self-cleavage was found to be 0.24.

Turning to A3U U51A A77U, the self-cleavage worked out at 0.8.
